Measured values as given in the supplement of paper PMC10126150.
Values marked as one replicate rest on one cluster of the flow cell; about a third of the high ones do not repeat.

Test system: ATP
Assay: switch fluorescence ratio, 500 uM ATP over buffer (Cy3 cluster intensity, sum of 5 cycles each) (fold (ratio)); higher = stronger signal-on switching upon ATP binding; sequences stand for … in TCGTCGGCAGCGTCAGATGTGTATAAGAGACAGTTTTTTTTTTTTTTTTTTTTTTTTT…TC
Conditions: aptamer strand: ATP DNA aptamer (quencher-CACCTGGGGGAGTATTGCGGAGGAAGG + anchor), 100 nM annealed; ATP concentration: 500 uM; one replicate
In short: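 Cy3-labelled switching-strand clusters on a modified Illumina MiSeq flow-cell were annealed to 100 nM quencher-labelled ATP aptamer, imaged in selection buffer, then imaged after 15 min with 500 uM ATP at 22 °C. Five buffer/ATP cycles ran, with NaOH stripping and re-annealing between them. The fluorescence ratio is summed target-cycle over summed buffer-cycle Cy3 intensity per cluster, averaged per switch-domain sequence. Clusters outside 100-1000 RFU were excluded.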
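Also: ATP exposure 15 min at 22 °C before imaging.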

Sequence | switch fluorescence ratio
CTGAAAGGTT | 0.983
TTATCTGT | 0.999
CTGTCGTCGG | 0.961
AAGACATTTT | 0.979
TGTAATAGGC | 1.04
TTACCTCGGT | 1.02
TACCCCATTC | 1.37
ACAATTGGTT | 0.979
CAGGAACGGT | 0.956
GGCGCGGTAT | 1.02
AGCATGTTAG | 1.01
CCATGCCTGT | 0.967
GAAAGTCTC | 1.06
TAAATTCGCG | 1.02
GTTTAAGACT | 0.984
AGATGACAAA | 1
CATGGATTCA | 0.994
TGAGAAACGC | 0.95
CTTATATTGA | 1
GGACTCCCGC | 1.47
CAGTGCGCAC | 0.97
TAGTCTCACG | 0.979
CTAACTTT | 1.02

Sequence | switch fluorescence ratio
GATACAGCAT | 1.07
TGAATTAGCG | 0.972
TATTCGCAAC | 5.18
ACAGACAACG | 1.1
AAATTAGGCT | 1.01
GAATCGTCAC | 1.04
GGGTGGTGCA | 0.963
GGTACCAGGA | 1.05
CACACTTATT | 1.04
GCAAGGCGT | 1.04
ACCCTGTGAG | 0.997
CGATTGTAA | 1.03
CATCATGTA | 1.02
TGGAGGTGTA | 0.987
AACTAGCCTC | 1.06
AGGGATGTAC | 1.13
GTAAAACCAT | 1.05
AAAAAACGCA | 1.13
GAACGCGGGT | 0.965
CGGCAATCTT | 2.29
TTACTGACAT | 1.16
TAACAGAATT | 1.03
CGTAAATTTT | 1.01

Sequence | switch fluorescence ratio
CCATTCTCAC | 1.02
TCTGTTCGCT | 1.02
CTCCATACGC | 2.11
ACTTATACGG | 1.13
ACTCATTTGC | 1.04
GGCGACCC | 1.09
AAGGTAAAGA | 1
CAGTTGATCG | 0.997
TAGCTTTATC | 1.03
CAGGGCCCAT | 1
CCCATGAGTT | 1.01
TCATTTCGTC | 1.01
TGGTGGTCCT | 1
ACGAAATTCG | 1
CCTGGACCCG | 1.14
TCTGGCTGA | 1.28
TACGGTTTGC | 0.986
AATTGAGTTT | 0.946
GAAGTTTCTC | 1.01
CGTACCGTAC | 1.18
AATGGCATT | 1.02
GTGTTAGATG | 0.995
CGGCGTTTTT | 1.04

Sequence | switch fluorescence ratio
CCATGACGT | 1
ATACAATGGG | 1.04
GGCATCGAAA | 1
AAAACGTGGT | 1.03
GCGAGTTTTT | 1
TCCATGCGGT | 1.01
ATATTAGACA | 1.01
TTATCTACCA | 1.05
GTTCAGTTGG | 1.02
TGTTGCTGG | 1.02
CCCTGATCAA | 1.08
AAATCAGGAT | 1.05
AAGGGTGATA | 1.03
CCACGCCCTA | 1.54
CCTGGGATTA | 1
TTCTTAAGTT | 1.02
TTTTCCTAG | 1.02
TCTTAATAGT | 0.966
GAATGAGGTT | 1.03
AAGTCGTATT | 1.01
TGCTTTAGTC | 1.01
GCCATATTGT | 1
TCTTTATGGA | 0.971

Sequence | switch fluorescence ratio
CAGGTGGCGA | 1.13
AAAATGTGCA | 1.02
TTATATTTTC | 1.07
CTGTGTTTTT | 1.02
AGTAAGATCG | 0.93
TTTGTGATGA | 1.03
GGAAAGATAC | 1.14
AAAGAAGGTT | 0.977
AAATTGAAAA | 0.949
AAGTTGCGCC | 1.01
TTGGGTAGCG | 1.06
ATGCTATACA | 1.02
ATTCGTTGTC | 1.02
TACGTCGGTT | 1.07
CTTATGGATT | 0.989
GGGTCCTGCC | 1.01
GCGACTCGT | 1.02
AGACTAGAAA | 1
CCTCAGGCGT | 2.1
GGGAAGCACG | 1
CAATAGAGAT | 1.08
CCGAGTCTAG | 1.49
ATCCCGCTCG | 1.04

Sequence | switch fluorescence ratio
CTTGTTAATA | 1
GTTCAGAGTG | 1.02
AACTCTTCTA | 1.05
TAACAACTCA | 1.02
CCACGCGTTT | 1.08
AGGTAACAG | 0.995
AGTGCACTA | 0.987
GCGCTTCCTC | 2.11
GCGCTTCATG | 1.13
CGGAAACTGT | 0.947
ACCTATTCAG | 1.05
GGTTCTATTC | 1.01
CTAAGCGACG | 1.06
GCGGAGATTA | 1.02
GTAGGCCCGT | 0.948
CAACAAAGGT | 1.01
CCGCGCGTCT | 1.24
ACCAGCCGCC | 1.33
TTAGAATTT | 1.03
GACAGAGGGG | 0.998
TCAGAATCCT | 1.07
TAGCTTGCTT | 0.966
TGACGGGGT | 1.03

Sequence | switch fluorescence ratio
GACTTCCGCC | 3.84
CTCATACGGA | 1.07
TTTGATCGGT | 0.947
AATAGGATGA | 1.01
AAGTGTGCG | 0.97
CTGCAACTTA | 1.19
AGCGCTGCG | 1.04
TGCAAGTTC | 1.16
ATACGTCCTA | 1.04
TACCGCTCGT | 1.25
AGTAATGATA | 1.01
TCGAATGATG | 1.11
GGTGGGCTAC | 1.02
ATACGAATTG | 1.04
CCGCCACTCT | 3.02
GAGGTGACAT | 1.03
TAAATTACGA | 1.06
GGTCTAAGTC | 1.05
AGTGAAGTCC | 1.01
CTAATAATTT | 0.991
